Measured values taken from US20200407452A1 (published 2020).

Assays:
[1] = molecular target: T1, native human MET on living cells (human, UniProt P08581); assay: cell-based or functional assay
[2] = molecular target: T1, native human MET on living cells; assay: cell-based or functional assay; remark: listed apart in the source
T1 sequence (P08581 25-1390): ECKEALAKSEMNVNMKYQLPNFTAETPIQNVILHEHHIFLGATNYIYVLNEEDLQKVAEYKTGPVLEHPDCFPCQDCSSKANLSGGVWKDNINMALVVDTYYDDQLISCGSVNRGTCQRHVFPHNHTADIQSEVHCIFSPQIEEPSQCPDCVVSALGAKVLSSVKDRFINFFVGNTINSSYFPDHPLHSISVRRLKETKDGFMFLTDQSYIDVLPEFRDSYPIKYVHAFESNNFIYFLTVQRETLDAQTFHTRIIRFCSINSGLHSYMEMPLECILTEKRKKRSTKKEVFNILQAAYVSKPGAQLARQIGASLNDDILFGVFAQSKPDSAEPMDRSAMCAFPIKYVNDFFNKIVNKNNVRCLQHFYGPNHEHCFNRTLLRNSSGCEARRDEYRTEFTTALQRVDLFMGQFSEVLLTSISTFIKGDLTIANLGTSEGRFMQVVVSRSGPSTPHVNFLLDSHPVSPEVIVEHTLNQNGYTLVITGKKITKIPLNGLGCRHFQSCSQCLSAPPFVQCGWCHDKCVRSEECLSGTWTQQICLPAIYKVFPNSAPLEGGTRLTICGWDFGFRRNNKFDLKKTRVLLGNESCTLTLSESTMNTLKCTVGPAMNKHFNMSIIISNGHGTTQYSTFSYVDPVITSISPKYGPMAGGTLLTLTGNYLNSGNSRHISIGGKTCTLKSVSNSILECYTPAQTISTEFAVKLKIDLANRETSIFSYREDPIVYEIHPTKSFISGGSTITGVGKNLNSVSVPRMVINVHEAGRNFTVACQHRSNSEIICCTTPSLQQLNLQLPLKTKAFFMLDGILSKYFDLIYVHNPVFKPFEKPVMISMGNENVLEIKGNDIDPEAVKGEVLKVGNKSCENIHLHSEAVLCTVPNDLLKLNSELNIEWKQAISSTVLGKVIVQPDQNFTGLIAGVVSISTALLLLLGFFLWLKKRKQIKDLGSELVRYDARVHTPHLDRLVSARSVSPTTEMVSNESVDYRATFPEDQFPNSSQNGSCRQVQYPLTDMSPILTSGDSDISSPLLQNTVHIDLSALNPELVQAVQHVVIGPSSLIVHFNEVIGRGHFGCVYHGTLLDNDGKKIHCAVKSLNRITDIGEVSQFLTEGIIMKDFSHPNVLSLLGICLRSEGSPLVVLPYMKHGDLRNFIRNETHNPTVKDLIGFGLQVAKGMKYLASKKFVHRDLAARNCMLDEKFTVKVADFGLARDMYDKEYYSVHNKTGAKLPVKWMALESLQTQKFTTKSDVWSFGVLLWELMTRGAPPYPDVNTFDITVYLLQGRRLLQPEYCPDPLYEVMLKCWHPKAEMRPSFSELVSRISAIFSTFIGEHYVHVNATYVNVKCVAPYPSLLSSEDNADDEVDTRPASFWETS

B1: recombinant human HGF (R&D Systems) (ligand)
chain: not shown
modifications: biotinylated at the N-terminus using NHS-LC-biotin (in the competition ELISA only)
[1]
  protection from staurosporine-induced apoptosis EC50, MCF10A cells: 4.57 nM
  protection from staurosporine-induced apoptosis EMAX, MCF10A cells: 59.3%
[2]
  phospho-MET ELISA EMAX, A549 cells: 100 % HGF activity
